Experimental data as given in PubChem BioAssay AID1508624 (National Center for Advancing Translational Sciences (NCATS), 2021).
The campaign covered roughly 48,000 compounds. About 120 (0.25%) were called active. Another 4% or so got no clear call; they are omitted. Calls come from the whole dose curve; as a rule, active = well fitted activation curve with a large enough effect; inconclusive = small, poorly fitted or top-dose-only effect, or another doubt; inactive = no such curve, though single readings can be large or run the other way. This is one part of the list.

Test: Primary qHTS for Identification of Small Molecule Activators of Huntingtin-Antisense Promoter Activity; note: nearly all actives have a fitted effect of over 55% in size
Conditions: HEK293 HTT-AS promoter firefly luciferase reporter, 24 h; series mostly up to 57.5 µM; activity change, positive = activation: at the top concentration
How it was run: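 Firefly luciferase readout (Dual-Glo, 10 min RT) after 24 h, 37 °C compound exposure (final up to 57.5 uM) of HEK293 reporter cells cultured 24 h beforehand; PTC124 at 50 uM final as control inhibitor; activity scaled vehicle 0%, zero RLU -100%.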

Activity change, positive = activation, inactive:
COc1ccc(CCn2c(=O)c3cccnc3n(CC(=O)Nc3cccc(C)c3)c2=O)cc1OC 1.25%
Cc1cc2nc(-c3ccc(Br)cc3)cc(C(F)(F)F)n2n1 -0.106%
CCc1ccc(-c2cn3c(n2)sc2cc(C(=O)NCC(C)c4ccccc4)ccc23)cc1 (configuration not stated) 9.26%
Cc1nc2c(C(=O)NCCc3ccc(Cl)cc3)c[nH]n2c(=O)c1Cc1ccccc1F -17.4%
CCc1ccc(N2CCn3c2nc2c3c(=O)n(Cc3c(F)cccc3Cl)c(=O)n2C)cc1 -7.42%
Cc1ccc2nc(NS(=O)(=O)c3ccc(Cl)cc3)c(Nc3ccc(C(=O)O)cc3)nc2c1 -0.0763%
Cc1nnc2c(N3CCN(c4ccccc4)CC3)nc3ccc(C(=O)c4ccccc4)cc3n12 -1.16%
N#C/C(=C\c1ccccc1)C(=O)Nc1sc2c(c1C(N)=O)CCC2 -13.7%
Cn1cnc(S(=O)(=O)N2CCC(C(=O)N3CCN(c4ccc(Cl)cc4)CC3)CC2)c1 -14.3%
CCc1ccccc1NC(=O)C1COc2ccccc2C1 (configuration not stated) 16.2%
N[C@H](C(=O)O)[C@@H](O)c1ccc(O)c(O)c1 -1.79%
COc1cccc(C2C(C(=O)Nc3ccccc3)=C(C)Nc3nnnn32)c1OC (configuration not stated) -9.43%
CCc1ccc(Sc2cc(C(=O)NCCCOC(C)C)c3ccccc3n2)cc1 -34.2%
Cc1cc(C)cc(OCC(=O)Nc2ccc(Cl)c(-c3nc4ncccc4o3)c2)c1 -30.3%
COc1cc2c(Oc3ccc(NC(=O)C4(C(=O)Nc5ccc(F)cc5)CC4)cc3F)ccnc2cc1OCCCN1CCOCC1 -40.9%
CC(=O)Nc1ccc(-n2c(CCC(=O)O)ccc2-c2ccc(C)cc2)cc1 -0.416%
CCOC(=O)c1oc2ccc(S(=O)(=O)n3nc(-c4cc(OC)cc(OC)c4)cc3N)cc2c1C -12.4%
Cc1ccc(NC(=O)CSc2nc3c(oc4ccccc43)c(=O)n2Cc2ccco2)cc1 -11%
CCCn1c(=O)c2sccc2n2c(CCCC(=O)N3CCN(c4cccc(C)c4C)CC3)nnc12 -19.2%
CN(C(=O)CSc1nc2ccccc2n1CC(=O)N(C)c1ccc(F)cc1)c1ccccc1 -4.84%
CCc1ccccc1NC(=O)Cn1nnc(C(=O)NCc2cccs2)c1N -18.1%
Cc1ccc(CNC(=O)CN2C(=O)C3(SCC(=O)N3c3cc(C)cc(C)c3)c3ccccc32)cc1 (configuration not stated) -24.1%
O=C(CSc1nccn1Cc1ccc(F)cc1)Nc1ccc2c(c1)OCO2 -6.12%
COc1ccc(CNCCSc2nnnn2-c2ccccc2)c(OC)c1 -12.3%
CCN(c1ccccc1)S(=O)(=O)c1ccc(F)c(C(=O)Nc2ccc(C)cc2)c1 -29%
Cc1nc(-c2cccc(F)c2)sc1CCNC(=O)c1ccc(F)c(F)c1 -25.3%
CCOc1ccc(Nc2oc(-c3ccc(COc4ccccc4C)o3)nc2C#N)cc1 -18.5%
O=C(C1CC1)N1CCc2cc(Br)cc(S(=O)(=O)N3CCN(c4ccccc4)CC3)c21 -3.31%
CCc1ccc(NS(=O)(=O)c2ccc(C(=O)N(C)C)s2)cc1 -28.1%
OCc1cccnc1 1.46%
Cn1c(=O)c2sccc2n2c(CCC(=O)N3CCN(c4cccc(Cl)c4)CC3)nnc12 -11.8%
Cc1c(CNCCc2ccc(S(N)(=O)=O)cc2)c(C(=O)O)c(C)n1Cc1ccc(Cl)cc1 3.71%
CCCCC(=O)Nc1nnc(S(=O)(=O)N(CC)c2cc(C)cc(C)c2)s1 -14.7%
CCCCOC(=O)c1ccc(Nc2nc3ccccc3c3nnc(C)n23)cc1 -6.21%
CCOc1ccc(/C=C(\C#N)C(=O)Nc2sc3c(c2C(=O)OC)C(C(=O)OC)CC3)cc1OC (configuration not stated) -20%
CCOC(=O)c1cc(OC(=O)c2ccc(Cl)cc2)n(-c2ccccc2)n1 -8.38%
Cc1ccc(N(CC(=O)N2CCN(c3ccc(Cl)cc3)CC2)S(=O)(=O)c2c(C)noc2C)cc1 -33.8%
COc1ccc(C2C(=O)N(C3CCCCC3)CC(=O)N2Cc2ccccc2Cl)cc1OC (configuration not stated) -11%
COc1ccc(-c2nn(CC(=O)Nc3ccccc3F)c3c2cnc2ccc(F)cc23)cc1 28.6%
CCc1ccc(-n2nc(C)c3c(C(=O)NCCc4ccc(OC)c(OC)c4)cc(C)nc32)cc1 -31%
Cc1ccc(C)c(N2CCN(CCCNC(=O)Cn3ncc4c([nH]c5ccccc54)c3=O)CC2)c1 -12.5%
Cc1ccc(-c2nc(S(=O)(=O)c3ccc(C)cc3)c(N3CCN(c4ccccc4)CC3)o2)cc1 -9.19%
CCN(CC)CCNC(=O)c1cc(Cl)c(N)cc1OC -9.49%
COc1ccc(CNC(=O)Cn2ncn3nc(-c4cccs4)cc3c2=O)cc1 11.6%
COc1ccc(N2CCN(S(=O)(=O)CCNC(=O)c3ccc(C(F)(F)F)cc3)CC2)cc1 -1.83%
CCC1CCCCN1C(=O)c1nn(-c2ccc(C)cc2)c(=O)c2c1c1ccccc1n2C (configuration not stated) 14.7%
COc1ccc(Cn2ccnc2SCC(=O)NCc2ccccc2)cc1 -8.46%
CCOc1ccc(CCNC(=O)c2cnc3sc(N4CCOCC4)nn3c2=O)cc1 -6.54%
COc1ccccc1-c1ccnc2[nH]n(-c3ccccc3)c(=O)c12 -5.3%
CCc1cccc(C)c1NC(=O)Cn1c(=O)cc(C(F)(F)F)c2c(C)nn(C)c21 -5.96%
Cc1cccc(N2CCN(c3nc4ccccc4c(=O)n3-c3ccc(Cl)cc3)CC2)c1C -14.8%
CCOc1ccc(C(=O)Nc2ccc(S(=O)(=O)N3CCCCC3c3cccnc3)cc2)cc1 (configuration not stated) -46.3%
Cc1ccc(C)c(S(=O)(=O)NCC(c2ccco2)S(=O)(=O)c2ccc(F)cc2)c1 (configuration not stated) -18.7%
Cc1ccc(N2CCN(C(=O)c3ccc4c(Cl)c5c(nc4c3)CCCC5)CC2)c(C)c1 -8.67%
Cc1noc(C)c1S(=O)(=O)N(CC(=O)NCc1ccccc1Cl)c1ccc(C(C)C)cc1 -39.9%
O=C(Nc1ccc(F)cc1F)c1c2c(nc3ccccc13)C(=O)N(C1CCCCC1)C2 -9.39%
O=C(NCc1cccs1)C1CCN(C(=O)N2CCOc3ccccc32)CC1 -22.9%
O=C(Nc1c(-c2ccccc2)nc2ccccn12)c1ccc(Br)cc1 -28.3%
O=C(CSc1nc2c([nH]c3ccccc32)c(=O)n1-c1ccccc1)c1ccccc1 -8.69%
CCCN1C(=O)c2ccccc2CC1(C)C(=O)NC1CCCCC1 (configuration not stated) -7.16%
Cc1ccc(Cl)cc1Nc1nn2c(=O)c3ccc(C(=O)NCc4cccs4)cc3nc2s1 -42.4%
COc1ccccc1NC(=O)C1CCN(S(=O)(=O)c2ccc3c(c2)oc(=O)n3C)CC1 -22.2%
Cc1ccc(NC(=O)N2CCN(c3nnc(C)c4c(C)n(-c5ccccc5)nc34)CC2)cc1Cl 2.92%
CCOc1ccccc1CNC(=O)c1cnc2sc(N3CCCC3)nn2c1=O -21.1%
CN(C)C/C=C(/c1ccc(Br)cc1)c1cccnc1 -2.3%
CCOCCCn1c(SCC(=O)Nc2cccc(OC)c2)nc2ccccc2c1=O -15.1%
O=C(NCc1ccc2c(c1)OCO2)c1ccc2c(c1)N(Cc1ccc(F)cc1)C(=O)c1ccccc1S2=O (configuration not stated) -24.4%
CCN(c1ccc(Cl)cc1)S(=O)(=O)c1nnc(NC(=O)C2CCCCC2)s1 -29.9%
Cc1ccc2nc(N(Cc3cccnc3)C(=O)c3ccc4c(c3)OCCO4)sc2c1 19.4%
CCOCCc1nn2c(=O)cc(COC(=O)c3cccs3)nc2s1 12.9%
CC(=O)NCCC(=O)N[C@@H](CCC(N)=O)C(=O)N[C@@H](CO)C(=O)N[C@@H](CCC(N)=O)C(=O)N[C@@H](CCC(N)=O)C(=O)N[C@H](C(=O)N[C@@H](Cc1ccccc1)C(=O)N[C@]1(C)CCCCCCC=CCCC[C@@](C)(C(=O)N[C@@H](CCC(N)=O)C(=O)N[C@@H](CC(N)=O)C(N)=O)NC(=O)[C@H](CC(C)C)NC(=O)[C@H](CC(C)C)NC(=O)[C@@H](CCCNC(=N)N)NC(=O)[C@H](Cc2c[nH]c3ccccc23)NC(=O)[C@H](CC(C)C)NC(=O)[C@H](CC(N)=O)NC1=O)[C@H](C)O -1.76%
CCCCCn1c(=O)[nH]c2cc(C(=O)NCc3ccc(OC)cc3)ccc2c1=O -12.6%
CCCC(=O)O[C@]1(C(=O)CCl)[C@@H](C)C[C@H]2[C@@H]3CCC4=CC(=O)C=C[C@]4(C)[C@@]3(F)C(=O)C[C@@]21C -25.1%
CCOC(=O)c1ccc(NC(=O)CCS(=O)(=O)c2ccc3c(c2)oc(=O)n3C)cc1 7.96% [at 11.5 µM, percent change from vehicle, -100% = no light]
CCCCN(CCCC)CCNC(=O)CN1C(=O)CSc2ccc(S(=O)(=O)N3CCCCC3)cc21 -5.31%
Cc1cccc(CN2C(=O)CC(c3ccc(Cl)cc3)c3c(C)nn(-c4nc(C)cc(C)n4)c32)c1 (configuration not stated) -23.7%
COc1ccccc1N(CC(=O)Nc1ccccc1F)S(C)(=O)=O 13.7% [at 11.5 µM, percent change from vehicle, -100% = no light]
CCOc1ccc(-n2nc3cc(C)c(NC(=O)CC)cc3n2)cc1 26.5%
CCc1ccc(NC(=O)C(CC)n2nnc(C(=O)OC)c2C(=O)OC)cc1 (configuration not stated) 19.3%
COc1ccc(C2NC(=O)c3c(sc4c3CCN(C)C4)N2)cc1O (configuration not stated) -0.788%
CCCNc1nc(NCc2ccccc2OC)c2cnn(C)c2n1 -29.3%
CCN(CCCNC(=O)c1cc2c(=O)[nH]c3ccc(C)cc3c2s1)c1ccc(C)cc1 -13.4%
Cc1ccc(Cl)cc1N1CCN(S(=O)(=O)c2ccc3[nH]c4c(c3c2)CCCC4)CC1 -22.6%
CCOc1ccc2ccccc2c1C(=O)N[C@@H]1C(=O)N2[C@@H]1SC(C)(C)[C@@H]2C(=O)O 1.77%
Cc1cccc(N2CCN(C(=O)C3CCN(S(=O)(=O)c4cn(C)cn4)CC3)CC2)c1C -18.7%
COc1ccccc1NC(=O)CN1C(=O)c2cccc3cccc1c23 -0.0591% [at 11.5 µM, percent change from vehicle, -100% = no light]
O=C(Cn1ncc2c3ccccc3n(Cc3ccccc3)c2c1=O)Nc1ccccc1C(F)(F)F -9.08%
